According to PubChem BioAssay AID1159614 (National Center for Advancing Translational Sciences (NCATS), 2016):
Out of some 45,000 compounds screened, about 65 (0.1%) were called active. Calls follow the shape of the dose curve; as a rule, active = well fitted activation curve with a large enough effect; inconclusive = small, poorly fitted or top-dose-only effect; inactive = no such curve, though single readings can be large or run the other way. Some of the results follow.

molecular target: Galactocerebrosidase (Homo sapiens) (UniProt P54803); test: A Novel Cell-Based Assay to Identify Small Molecules for B -Galactocerebrosidase; settings: 145M-Twi-hGALC-G270D cells (Twitcher mouse brain line with human GALC G270D), HMU-beta-Gal fluorescence, 48 h; series mostly up to 57.5 µM; activation: at the top concentration; also: 0% is about no effect; nearly all actives have a fitted effect of over 65% in size
Sequence of UniProt P54803 (P54803 whole entry, looked up): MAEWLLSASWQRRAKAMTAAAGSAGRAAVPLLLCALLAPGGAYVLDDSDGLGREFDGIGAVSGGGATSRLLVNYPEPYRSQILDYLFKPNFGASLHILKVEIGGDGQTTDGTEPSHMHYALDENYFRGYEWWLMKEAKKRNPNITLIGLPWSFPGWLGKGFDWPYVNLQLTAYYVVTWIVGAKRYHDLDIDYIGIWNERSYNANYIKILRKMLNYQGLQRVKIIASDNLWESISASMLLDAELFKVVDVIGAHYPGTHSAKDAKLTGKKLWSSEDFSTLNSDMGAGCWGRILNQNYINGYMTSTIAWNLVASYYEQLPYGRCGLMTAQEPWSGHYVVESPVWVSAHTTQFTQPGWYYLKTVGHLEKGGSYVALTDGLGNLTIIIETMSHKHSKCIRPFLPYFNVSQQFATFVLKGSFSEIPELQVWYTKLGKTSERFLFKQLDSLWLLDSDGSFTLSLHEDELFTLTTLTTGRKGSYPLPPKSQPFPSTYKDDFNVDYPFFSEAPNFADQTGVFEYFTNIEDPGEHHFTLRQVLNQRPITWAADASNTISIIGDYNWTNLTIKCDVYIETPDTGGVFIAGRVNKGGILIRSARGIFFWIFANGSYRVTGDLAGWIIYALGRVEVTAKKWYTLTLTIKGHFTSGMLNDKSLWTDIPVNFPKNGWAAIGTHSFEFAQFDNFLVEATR
Outline: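 Fluorogenic HMU-b-Gal hydrolysis (0.1 mM final, pH 5.2 citrate-phosphate with 1 mg/mL sodium taurocholate; carbonate stop buffer) measures mutant GALC activity after compound treatment of live 145M-Twi Twitcher brain cells stably carrying human GALC-G270D, with wild-type GALC line alongside; activation sought.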

activation, inactive:
Cc1cccc(NC(=O)CN(C)S(=O)(=O)c2cnc[nH]2)c1C -10.5%
Cc1cc(C)c(NC(=O)CSc2cn(CC(=O)N3CCOCC3)c3ccccc23)c(C)c1 5.53%
CCCCC(=O)N1CCN(c2nc3c(C)c(C)ccc3s2)CC1 -22.3%
CCCCNc1cc(N2CCN(C3CCCCC3)CC2)c2noc3c2c1C(=O)c1ccccc1-3 -14.8%
CCc1ccc2c(c1)c(=O)c(C(=O)c1ccccc1)cn2CC(=O)Nc1ccc(C)c(Cl)c1 -13.1%
CCc1ccc2c(c1)c(=O)c(C(=O)c1ccc(C)cc1)cn2CC(=O)Nc1ccccc1C -5.35%
Cc1cc(C)c2c(n1)SCC(=O)N2CC(=O)Nc1cccc(C)c1C 0.0227%
Cc1oc2ncn(CC(C)C)c(=O)c2c1C(=O)NCCCN1CCCCC1C (stereo not drawn) -5.52%
COc1cccc(Cn2c(=O)n(CC3CCC(C(=O)N4CCOCC4)CC3)c(=O)c3sccc32)c1 (stereo not drawn) -12.1%
CCc1ccc(Cn2c(CNS(=O)(=O)c3ccc4c(c3)CCCC4)nc3cccnc32)cc1 -1.34%
CCOc1ccc(NC(=O)c2oc3ccccc3c2NC(=O)Cc2cccs2)cc1 -7.93%
CCN1CCN(C(=O)c2ccc3c(c2)N(Cc2ccc(Cl)cc2)C(=O)c2ccccc2S3=O)CC1 (stereo not drawn) -0.922%
Cc1ccc(NC(=O)CSc2nc3nccnc3c(=O)n2CCc2c[nH]c3ccccc23)c(C)c1 -10.8%
COc1ccc(-c2c(C)nn3c(-c4ccccc4)cc(-c4ccccc4)nc23)cc1 -2.59%
CCc1ccccc1NC(=O)c1ncoc1-c1ccco1 -19.4%
COc1ccc(-c2nnc(SCC(=O)NCCc3ccccc3)nc2-c2ccc(OC)cc2)cc1 -3.59%
Cc1cccc(C)c1OCC(=O)Nc1c(C(=O)c2ccccc2)oc2ccccc12 -1.39%
O=C1CSC2(C(=O)N(Cc3c(F)cccc3Cl)c3ccccc32)N1c1ccc(F)c(F)c1 (stereo not drawn) -23.3%
O=C(CSc1ncc2c(n1)-c1cc(Cl)ccc1N(Cc1ccccc1)S2(=O)=O)NCc1ccccc1 -6.26%
Cc1ccc(OCCSc2nc3ccccc3n2CC(=O)NC(C)C)cc1 -17.2%
CCOc1ccc(NC(=O)c2ncn(-c3ccccc3)n2)cc1 -9.81%
Cc1ccc(-c2nnn3c2nc(N2CCC(C)CC2)c2ccccc23)cc1 -3.09%
CCCCOC(=O)c1ccc(NC(=O)c2cc(=O)c3ccccc3o2)cc1 -16.3%
CC(C)C[C@@H](N)C(=O)O -6.39% [at 23.8 µM]
Cc1ccc(C)c(N2CCN(C(=O)c3cccn4c(=O)c5ccccc5nc34)CC2)c1 -25.9%
Cc1cc(SCC(=O)Nc2ccc(C(F)(F)F)cc2)nc(=O)[nH]1 -2.8%
O=C(Nc1ccc(OC(F)(F)F)cc1)C(NS(=O)(=O)c1cccc2nsnc12)c1ccccc1 (stereo not drawn) -9.27%
CCc1ccc(C(=O)c2cn(CC(=O)Nc3ccc(OC)cc3)c3cc4c(cc3c2=O)OCCO4)cc1 -2.95%
O=C(O)CCCn1cc(NC(=O)COc2ccccc2F)cn1 -18%
COc1ccc(C(=O)Nc2ccc3nc(N4CCCCC4)cc(C)c3c2)cc1OC -16.5%
COc1ccc(CCNC(=O)c2ccc(CSCc3ccc(C)cc3)o2)cc1OC -18.4%
Cc1cccc(CSc2ccc3nnc(CCNS(=O)(=O)c4ccccc4)n3n2)c1 -12.9%
COCCCNC(=O)C1CCN(C(=O)c2cc3sccc3n2Cc2ccc(Cl)cc2)CC1 -11.6%
CCOc1ccc(S(=O)(=O)NCCc2csc3nc(-c4cccc(C)c4)nn23)cc1 -12.5%
Cc1ccc(C(=O)Nc2nnc(S(=O)(=O)N3CCCc4ccccc43)s2)cc1 -9%
Fc1ccc(Nc2c(-c3c[nH]c4ccccc34)nc3ccccn23)cc1 -29.2%
COc1cc(NS(=O)(=O)c2cc3c(cc2C)n(C)c(=O)c(=O)n3C)cc(OC)c1 7.99%
O=S(=O)(c1ccc(Cl)cc1)N1CCC(c2ccncc2)CC1 -6.72%
O=C(Nc1nnc(S(=O)(=O)N2CCOCC2)s1)c1cccc(Br)c1 -19.3%
COc1cccc(C(=O)Nc2ccc(C(=O)OCc3cc(=O)n4cc(C)sc4n3)cc2)c1 -0.51%
Cc1nc2c(C(=O)NCCc3ccccc3)c[nH]n2c(=O)c1Cc1ccccc1F -11.3%
COc1ccc(-c2nc3c4ccccc4n(CC(=O)Nc4ccc(C(C)=O)cc4)c(=O)n3n2)cc1 -6.99%
Cc1ccccc1C(=O)NC1(C(F)(F)F)C(=O)Nc2c1c(=O)[nH]c(=O)n2CCc1ccccc1 (stereo not drawn) -19%
Cc1cc(C)cc(NC(=O)CSc2nc3c(cnn3-c3ccc(F)cc3)c(=O)[nH]2)c1 -21.3%
Cc1nc2ccc(S(=O)(=O)NCC(=O)Nc3ccc(C)c(Cl)c3)cc2s1 -4.73%
COc1cc(NC(=O)c2cc3cc4ccc(OC)c(Cl)c4nc3s2)cc(OC)c1 -18.6%
COc1cc(NC(=O)NCCn2nnc3cc(S(=O)(=O)N(C)C)ccc32)cc(OC)c1OC -8.8%
Cc1ccc(-c2cc3ncc4c(n3n2)-c2ccccc2OC4)cc1 -13.4%
CCC(Sc1ccc2nnc(CCNS(=O)(=O)c3ccc(OC)cc3)n2n1)C(=O)OC (stereo not drawn) -13.6%
COc1ccc(C(=O)NCc2ccc3c(c2)CCN3C(=O)c2cccc(C)c2)cc1OC -17.2%
Cc1oc2ncnc(N3CCOCC3)c2c1C(=O)NCc1ccccc1 -7.38%
O=C(CCn1cccn1)Nc1cccc(C(F)(F)F)c1 -9.82%
O=C(CCSCc1cnn(-c2ccccc2)c1-n1cccc1)NCc1ccc(Cl)cc1 -10.7%
Cc1ccc(-n2c(=O)c3c(cnn3C)n(CC(=O)Nc3cc(C)ccc3C)c2=O)cc1 -10.2%
Cc1ccc(NC(=O)Cn2cc(C(=O)c3cccs3)c3ccccc32)cc1C -6.65%
Cc1ccc(C(=O)c2cn(Cc3cccc(F)c3)c3nc(C)ccc3c2=O)cc1 -7.64%
O=C1c2c(O)cccc2Cc2cccc(O)c21 -17.9%
Cc1cccc(NS(=O)(=O)c2ccc(Cl)c(C(=O)Nc3ccccc3C)c2)c1 -11.6%
CCCN(Cc1cccs1)C(=O)Nc1ccc(Br)c(C)c1 -10.6%
CC(C)Cn1c(-c2ccc(S(=O)(=O)N3CCCC3)cc2)csc1=Nc1ccccc1 -20.5%
O=C(O)CCCC[P+](c1ccccc1)(c1ccccc1)c1ccccc1 -0.344%
Cc1nc2sccn2c(=O)c1S(=O)(=O)N1CCN(c2ccc(F)cc2)CC1 -6.8%
COc1ccc(CCNC(=O)CSc2nc3ccccc3nc2Cc2ccc(Cl)cc2)cc1OC -4.3%
